{"source": "the RNAGym collection of RNA variant scans (doi:10.7554/elife.90254)", "parents": {"B1": {"name": "OR4K15 (parent)", "chain": "GUUAACGGUCAUAGGCCAUGGAAACUAGGAGCACCAUUUCGCUGCCAGUGAAGAAAUGAACAAAGAAAAUCUGGGCCAGGCAGGCAUCAAAAGAAAUAGUCUUGCGCUCAACCAGAAAGUCUGUAAUCAUUUUAAGGGUA"}}, "note": "The source gives no read counts; variants with many changes may rest on few reads."}
{"variants_of": "B1", "test": "self-cleavage, relative activity (ratio to wild type); higher = more cleavage; in vitro, sequencing; the parent is a self-cleaving ribozyme"}
{"variant": "GUUAACGGUCAUAGGCCAUGGAAACUAGGAGCACCAUUUCGCUGCCUGUGAAGAAAUGAACAAAGAAAUUCUGGGCCAGGCAGGCACCAAAAGAAAUAGUCUUGCGCUCAACCAGAAAGUCUGUAAUCAUUUUAAGGGUA", "self-cleavage": 0.69}
{"variant": "GUUAACGGUCAUAGGCCAUGGAAACUAGGAACGCCAUUUCGCUGCCAGUGAAGAAAUGAACAAAGAAAAUCUGGGCCAGGCAGGCAUCAAGAGAAAUAGUCUUGCGCUCAACCAGAAAGUCUGUAAUCAUUUUAAGGGUA", "self-cleavage": 0.5}
{"variant": "GUUAACGGUCAUAGGCCAUGGAAACUAGGAGCACCAUUUCGCUGCCAGUGAUGAAAUGAACAAAGAAAAUCUGGGCCAGGCAGGCAUCAAGAGAAAUAGUCUCGCGCUCAACCAGAAAGUCUGUAAUCAUUUUAAGGGUA", "self-cleavage": 0.47}
{"variant": "GUUAACGGUCAUAGGCCAUGGAAACUAGGAGCACCAUUUCGCUGCCAGUGAAGUAAUGAACAAAGAGAAUCUGGGCCAGGCAGGCAUCAAAAGAAAUAGUCUUGCGCUCAACCAGAAAGUCUGUAAUCAUCUUAAGGGUA", "self-cleavage": 1.46}
{"variant": "GUUAACGGUCAUAGGCCAUGGAAACUAGGAGCACCAUUUCGCUGCCAUUGAAGAAAUGAACCAAGAAAAUCUGGGCCAGGCAGGCAUCAAAUGAAAUAGUCUUGCGCUCAACCAGAAAGUCUGUAAUCAUUUUAAGGGUA", "self-cleavage": 1.89}
{"variant": "GUUAACGGCCAUAGGCCAUGGAGGCUAGGAGCACCAUUUCGCUGCCAGUGAAGAAAUGAACAAAGAAAAUCUGGGCCAGGCAGGCAUCAAAAGAAAUAGUCUUGCGCUCAACCAGAAAGUCUGUAAUCGUUUUAAGGGUA", "self-cleavage": 0.76}
{"variant": "GUUAACGAUCGUAGGCCAUGGAAACUAGGAGCACCAUUUCGCUGCCAGUGAAGAAAUGAACAAAGUAAAUCUGGGCCAGGCAGGCAUCAAAAGAAAUAGUCUUGCGCUCAACCAGAAAGUCUGUAAUCAUUUUAAGGGUA", "self-cleavage": 1.58}
{"variant": "GUUAACGGUCAUAGGCCAUGGAAACUAGGAGCACCAUUUCGCUGCCAGUGGAGAAAUGAACAGAGAAAAUCUGGGCCGGGCAGGCAUCAAAAGAAAUAGUCUUGCGCUCAACCAGGAAGUCUGUAAUCAUUUUAAGGGUA", "self-cleavage": 0.23}
{"variant": "GUUAACGGUCAAAGGCCAUGGAAACUAGGAGCACCAUUUCGCUGCCAGUGAAGAUAUGAACAAAGCAAAUCUGGGCCAGGCAGGCAUCAAAAGAAAUAGUCUUGCGCUCAACCAGAAAGCCUGUAAUCAUUUUGAGGGUA", "self-cleavage": 0.93}
{"variant": "GUUAACUGUCAUUGGCCAUGGAAACUAGGAGCACCAUUUCGCUGCCAGUGUAGAAAUGAACAAAGAAAAUCUGGGCCAGGCAGGCAUCAAAAGAAAUAGUCUUGCGCUCAACCAGAGAGUCUGUAAUCAUUUUAAGGGUA", "self-cleavage": 1.29}
{"variant": "GUUAACGGCCAUAGGCCAUGGAAACUAGGAGCACCAUUUCGCUGCCAGUGGAGAAAUGAACAAAGAAAAUCUGGGCCAGGCAGGCAUCAAAAGAAAUAGUCUUGCGCUCAACCAGAAGGUCUGUAAUCACUUCAAGGGUA", "self-cleavage": 0.4}
{"variant": "GUUAACGGUCAUAGGCCAUGGAAACUAGGAGCACCAUUUCGCUGCCAGUGAAGAAAUGAGCAAAGAAAAUCUGGGCCAGGCAGGCAUCAAUAGAAAUAGUCUUGCGCUCAACCAGAAAGUCUGUAAUCAUUCUAAGGGUA", "self-cleavage": 2.41}
{"variant": "GUUAACGGUCAUAGGCCAUGGAAACUAGGAGCACCAUUUCGCUGCCAGUGAAGAAAUGAACAAAGAAAAUCCGGGCCAGGCAGGCAUCAAAAGAAAUAGCCUUGCGCUCAACCAGAAAGUCUGUAAUCAUUUUAGGGGUA", "self-cleavage": 0.33}
{"variant": "GUUAACGGUCAUAGGCCAUGGAAACUAGGAGCACCAUUUCGCCGCCAGCGAAGAAAUGAACAAGGAAAAUCUGGGCCAGGCAGGCAUCAAAAGAAAUAGUCUUGCGCUCAACCAGAAAGUCUGUAAUCAUUUUAAGGGUA", "self-cleavage": 1.71}
{"variant": "GUUAACGGUCACAGGCCAUGGAAACUAGGGGCACCAUUUCGCUGCCAGUGAAGAAAUGAACAAAGAAAAUCUGGGCCAGGCAGGCAUCAGAAGAAAUAGUCUUGCGCUCAACCAGAAAGUCUGUAAUCAUCUUAAGGGUA", "self-cleavage": 0.46}
{"variant": "GUUAACGGUCAUAGGCCAUGGAAACUAGGAGCACCAUUUCGCUGCCGGUGAAGAAAUGAACAAAGAAAAUCUGGGCUAGGCAGGCAUCAAAAGAAAUAGUCUUGCGCCCAACCAGAAAGUCUGUAAUCAUUUUAAGGGUA", "self-cleavage": 0.03}
{"variant": "GUUAACGGUCAUAGGCCACGGAAACUAGGAGCACCAUUUCGCAGCCAGUGUAGAAAUGAACAAAGAAAAUCUGGGCCAGGCAGGCAUCAAAAGAAAUAGUCUUGCGCUCAACCAGAAAGUCUGUAAUCAUUUUAAGGGUA", "self-cleavage": 1.11}
{"variant": "GUUAACGGUCAUAGGCCAUGGAAACUAGGAGCGCCAUUUCGCUGCCAGCGAAGAAAUGAACAAAGAAAAUCUGGGCCAGGCAGGCAUCAAAAGAAAUAGUCUUGCGCUCAACCAGAAGGUCUGUAAUCAUUUUAAGGGUA", "self-cleavage": 0.26}
{"variant": "GUUGACGGUCAUAGGCCAUGGAAACUAGGAGCACCAUUUCGCUGCCAGUGAAGAAAUGAACAAAGAAAAUCUGGGCCAGGCAGGCAUCAAAAGAAGUAGUCUUGCGCUCAACCAGAGAGUCUGUAAUCAUUUUAAGGGUA", "self-cleavage": 1.1}
{"variant": "GUUAACGGCCAUAGGCCAUGGAGACUAGGAGCACCAUUUCGCUGCCAGCGAAGAAAUGAACAAAGAAAAUCUGGGCCAGGCAGGCAUCAAAAGAAAUAGUCUUGCGCUCAACCAGAAAGUCUGUAAUCAUUUUAAGGGUA", "self-cleavage": 0.83}
{"variant": "GUUAACGGUCACAGGCCAUGGAAACUAGGAGCACCAUUUCGCUGCCAGUGAAGAAAUGAACAAAGAAAAUCUGGGCCAGGCAGGCAUCAAAAGAAAUAGUCUUGCGCUCAGCCUGAAAGUCUGUAAUCAUUUUAAGGGUA", "self-cleavage": 0}
